Results taken from article PMC4336329 (PLoS ONE, 2015).
The whole screen tested about 310,000 compounds, of which about 14,000 (4.5%) showed an effect of 50% or more. The effect is printed as a negative number. This is one part of the list.

Target: human ether-à-go-go-related gene (hERG) potassium channel (human, UniProt Q12809)
Assay: primary screen, population patch clamp on CHO cells stably expressing hERG
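Note: peak tail current of the secondary pulse compared with the same well before compound.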

Sequence of human ether-à-go-go-related gene (hERG) potassium channel (Q12809 whole entry, looked up): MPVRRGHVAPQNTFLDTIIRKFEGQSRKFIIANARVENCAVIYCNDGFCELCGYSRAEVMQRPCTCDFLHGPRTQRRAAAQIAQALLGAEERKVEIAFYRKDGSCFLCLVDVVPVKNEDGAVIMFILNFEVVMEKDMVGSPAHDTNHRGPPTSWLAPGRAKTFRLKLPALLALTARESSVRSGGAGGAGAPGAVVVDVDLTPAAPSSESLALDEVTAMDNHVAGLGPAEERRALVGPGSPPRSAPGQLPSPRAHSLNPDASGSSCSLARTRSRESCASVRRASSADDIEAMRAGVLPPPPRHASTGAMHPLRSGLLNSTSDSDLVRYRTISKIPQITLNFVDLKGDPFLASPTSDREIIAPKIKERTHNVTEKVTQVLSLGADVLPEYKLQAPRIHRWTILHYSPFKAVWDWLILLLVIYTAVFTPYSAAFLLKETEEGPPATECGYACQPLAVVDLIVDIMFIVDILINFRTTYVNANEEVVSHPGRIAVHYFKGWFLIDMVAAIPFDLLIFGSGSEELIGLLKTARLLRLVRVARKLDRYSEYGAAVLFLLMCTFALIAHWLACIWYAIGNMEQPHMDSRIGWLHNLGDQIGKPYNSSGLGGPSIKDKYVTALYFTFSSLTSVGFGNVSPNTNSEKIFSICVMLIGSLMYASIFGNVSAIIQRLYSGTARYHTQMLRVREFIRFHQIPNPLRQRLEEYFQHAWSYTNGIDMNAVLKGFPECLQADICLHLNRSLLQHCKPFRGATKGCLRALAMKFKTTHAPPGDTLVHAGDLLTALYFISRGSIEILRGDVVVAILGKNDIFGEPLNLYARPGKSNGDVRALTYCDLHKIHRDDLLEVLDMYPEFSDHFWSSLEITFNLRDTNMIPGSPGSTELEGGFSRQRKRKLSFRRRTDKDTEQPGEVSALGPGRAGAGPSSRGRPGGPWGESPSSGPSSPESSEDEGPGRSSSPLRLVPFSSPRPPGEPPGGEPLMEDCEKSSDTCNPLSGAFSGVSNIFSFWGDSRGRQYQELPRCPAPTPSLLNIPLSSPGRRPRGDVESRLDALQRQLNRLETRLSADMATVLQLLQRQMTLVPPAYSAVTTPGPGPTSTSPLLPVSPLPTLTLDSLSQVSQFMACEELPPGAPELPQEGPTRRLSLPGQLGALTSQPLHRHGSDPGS

Row | SMILES | hERG current change (%, negative = inhibition) at 10uM [%]
1 | O=C(NCc1ccco1)c1nc2nc(-c3cccs3)cc(C(F)(F)F)n2n1 | -29.6
2 | Cc1cccc(-n2ncc3c(N4CCOCC4)ncnc32)c1 | -43.4
3 | CCn1c(SCC(=O)NNC(=O)c2ccccc2)nnc1-c1ccncc1 | -5.25
4 | CCOC(=O)CN(Cc1sccc1C)C(=O)Nc1cccc(OC)c1 | 7.38
5 | Cc1nonc1NC(=O)CSc1nnc(-c2ccoc2C)n1-c1cccc(Cl)c1 | -77.9
6 | CCn1c(SCC(=O)Nc2ccc(F)cc2)nnc1-c1cnccn1 | -56.8
7 | Cc1cc2c(=O)n(NC(N)=O)c(C)nc2s1 | -2.05
8 | COc1cc(C2CC(=O)N(CC(=O)NCc3ccco3)c3ccccc3S2)cc(OC)c1OC (centres unmarked) | -19.1
9 | O=C1C[C@H](NC(=O)OCc2ccccc2)CO1 | 6.32
10 | CCc1n[nH]c(=S)n1/N=C/c1cc(Br)c(O)c(OC)c1 | 18.1
11 | O=C(NNC(=S)NC1CCCCC1)c1ccccc1Br | 12.7
12 | CCN(CC)S(=O)(=O)c1cccc(C(=O)N[C@H](C(=O)OCC(=O)Nc2ccccc2)C(C)C)c1 | -25.6
13 | Cc1ccc(CNC(=O)CN(C(=O)C2(C)CC(=O)N=C3C=CC=CN32)c2cc(C)ccc2C)cc1 (centres unmarked) | 13.6
14 | O=C(O)c1cc(-c2cccnc2)nn1-c1ccccn1 | -18.1
15 | O=C(O)C1(P(=O)(c2ccc(Cl)cc2)c2ccc(Cl)cc2)CCCC1 | 5.46
16 | O=C(COC(=O)c1ccc(-n2cnnn2)cc1)Nc1cc(Cl)ccc1F | -0.927
17 | Cc1[nH]c2ccc(Cl)cc2c(=O)c1CN1CCCC1 | 1.86
18 | COc1ccc(OCC(=O)Nc2cc(S(=O)(=O)N3CCCCC3)ccc2OC)cc1 | -28.5
19 | Cc1ccc(S(=O)(=O)c2ccc(Cl)cc2)cc1S(=O)(=O)N(C)CC(=O)O | 22.8
20 | COc1ccc(C(=O)N2CC3(CC(c4cccc([N+](=O)[O-])c4)=NO3)C[C@H]2C(=O)NCC(N)=O)cc1 (some centres unmarked) | 8.99
21 | COc1ccc(CNC(=O)COC(=O)CCN2C(=O)C3CC=CCC3C2=O)cc1OC (centres unmarked) | 15.7
22 | O=C(c1ccccn1)N(CC1CCCO1)C1(C(=O)NC2CCCCC2)CCCCC1 (centres unmarked) | -4.56
23 | CCC(C)(C)C1CCc2[nH]nc(C(=O)N/N=C(\C)c3ccco3)c2C1 (centres unmarked) | -12.1
